According to article PMC4336329 (PLoS ONE, 2015):
About 14,000 (4.5%) of roughly 310,000 compounds showed an effect of 50% or more. The effect is printed as a negative number. This is one part of the list.

Each compound was assayed against human ether-à-go-go-related gene (hERG) potassium channel (human, UniProt Q12809) (assay: primary screen, population patch clamp on CHO cells stably expressing hERG).
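Further: peak tail current of the secondary pulse compared with the same well before compound.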

Sequence of human ether-à-go-go-related gene (hERG) potassium channel (Q12809 whole entry, looked up): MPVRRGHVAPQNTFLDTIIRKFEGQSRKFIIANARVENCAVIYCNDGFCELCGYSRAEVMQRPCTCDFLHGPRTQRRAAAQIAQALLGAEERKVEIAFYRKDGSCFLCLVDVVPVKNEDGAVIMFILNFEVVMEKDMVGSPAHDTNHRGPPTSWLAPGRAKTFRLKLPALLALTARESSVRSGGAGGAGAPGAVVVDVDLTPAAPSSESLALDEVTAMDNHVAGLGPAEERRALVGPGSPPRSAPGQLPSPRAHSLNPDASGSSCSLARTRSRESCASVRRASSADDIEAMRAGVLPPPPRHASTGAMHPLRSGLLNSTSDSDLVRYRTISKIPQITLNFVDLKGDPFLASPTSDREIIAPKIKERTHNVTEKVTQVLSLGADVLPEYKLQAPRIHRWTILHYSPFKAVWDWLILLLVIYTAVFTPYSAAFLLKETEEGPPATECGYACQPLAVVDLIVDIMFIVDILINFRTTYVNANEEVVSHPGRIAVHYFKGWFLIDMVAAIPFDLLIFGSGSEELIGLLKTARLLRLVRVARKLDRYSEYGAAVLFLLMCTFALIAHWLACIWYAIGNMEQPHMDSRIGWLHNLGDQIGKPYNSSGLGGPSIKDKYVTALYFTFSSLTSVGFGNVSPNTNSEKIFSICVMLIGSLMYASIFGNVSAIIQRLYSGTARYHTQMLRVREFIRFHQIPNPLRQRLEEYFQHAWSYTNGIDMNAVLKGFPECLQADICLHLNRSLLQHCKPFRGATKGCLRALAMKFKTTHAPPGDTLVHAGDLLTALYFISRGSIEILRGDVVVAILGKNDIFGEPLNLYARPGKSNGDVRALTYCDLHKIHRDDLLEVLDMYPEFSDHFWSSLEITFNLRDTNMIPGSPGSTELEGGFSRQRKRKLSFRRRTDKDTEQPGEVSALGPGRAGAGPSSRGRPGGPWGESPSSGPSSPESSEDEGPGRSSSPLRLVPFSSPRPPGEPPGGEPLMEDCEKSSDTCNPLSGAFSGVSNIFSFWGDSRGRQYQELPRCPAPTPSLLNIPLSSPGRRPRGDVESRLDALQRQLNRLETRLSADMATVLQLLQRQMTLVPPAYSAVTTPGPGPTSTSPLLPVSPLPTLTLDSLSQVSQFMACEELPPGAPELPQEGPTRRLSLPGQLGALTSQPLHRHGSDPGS

Compound | hERG current change (%, negative = inhibition) at 10uM [%]
COc1ccc(NS(=O)(=O)c2ccc3c(c2)N(C(C)=O)CCO3)c(OC)c1 | 3.3
O=C(NCc1ccncc1)c1cc(S(=O)(=O)N2CCOCC2)c(Cl)cc1Cl | -13.3
O=C(NCC(c1ccco1)N1CCc2ccccc21)c1ccccc1 (stereo not shown) | -3.78
CC1(c2ccccn2)Nc2ccccc2-c2nc3ccccc3n21 (stereo not shown) | -4.59
CCc1ccc(CN2CCC(C(=O)Nc3ccc(Oc4ccccc4)nc3)CC2)o1 | -58.9
CCCCNc1nnc(Cc2ccc(Cl)cc2)c(=O)[nH]1 | 11.4
C=CCc1cc(OC)ccc1OCCON1C(=O)CCC1=O | -1.77
N#Cc1nc(-c2ccco2)oc1N1CCCC1 | -11.1
O=C(COc1ccc(S(=O)(=O)N2CCCC2)cc1)N1CCCC1 | 1.33
CCOC(=O)c1c(C=O)c2sc(C)cc2n1C | 5.67
O=C(NCc1ccccc1)C1CCN(S(=O)(=O)c2ccc(Cl)cc2)CC1 | 3.16
Cc1ccc(CNC(=O)CCn2cc(-c3ccc(C)cc3)nc2-c2ccncc2)cc1 | -45.1
c1ccc2[nH]c(-c3ccc4c(c3)OCO4)nc2c1 | 2.53
CCOC(=O)c1c(-c2ccccc2)csc1NC(=O)C(C)NCc1ccco1.O=C(O)C(=O)O (stereo not shown) | -4.22
COc1cccc(NC(=O)Cc2c(O)c3ccccc3[nH]c2=O)c1 | 10.8
COc1ccc(C(c2nnnn2CCc2ccccc2)N2CCN(C3CCCC3)CC2)cc1.Cl (stereo not shown) | -68
COc1cc2cc(C(=O)N3CCOCC3)cc(-c3ccc(C)cc3)c2cc1OC | -8.61
CCn1c(SCc2ccccc2)nc2c1c(=O)[nH]c(=O)n2C | -2.9
COc1ccc(-c2nonc2NC(=O)c2ccco2)cc1OC | 10.4
O=C(N/N=C/C(Br)=C/c1ccccc1)c1ccccc1F | -38.5
CCc1ccc(C2c3[nH]c4ccccc4c3CCN2C(=O)c2cc(C)nn2C)cc1 (stereo not shown) | -2.58
Cc1ccccc1OCCSc1nnc(-c2ccncc2)n1C | -30.8
COc1cccc(/C=N/n2c(-c3ccco3)nc3ccccc3c2=O)c1OC | -3.99
CCCCn1c(N)c(N(CCOC)C(=O)c2cccc(S(=O)(=O)N(C)c3ccccc3)c2)c(=O)[nH]c1=O | 6.58
O=C(C1CCN(CCCc2ccccc2)CC1)N(CCc1ccccc1)Cc1ccccc1.O=C(O)C(=O)O | -75
Cc1ccc(/C=C(\NC(=O)c2ccccc2)C(=O)OCc2ccccc2)cc1 | 10.3
[N-]=[N+]=CC(=O)CCCN1C(=O)c2ccccc2C1=O | 7.83
CC(Oc1ccc(F)cc1)C(=O)Nc1nc(-c2ccccn2)cs1 (stereo not shown) | -76.3

Compound | hERG current change (%, negative = inhibition) at 10uM [%]
COCC(=O)Nc1cc(C)c2c(=O)oc3ccccc3c2n1 | 4.33
COc1cc(C2C(C#N)=C(N)Oc3n[nH]c(-c4ccncc4)c32)cc(OC)c1OC (stereo not shown) | 0.28
O=C(Cc1ccccc1)Nc1ccccc1C(=O)N1CCCCC1 | 13.7
COc1cc(/C=C/C(=O)O)cc(S(=O)(=O)Nc2ccc3nc(C)sc3c2)c1OC | 26.5
CCc1ccc(CCC(=O)Nc2ccc(Br)cc2)o1 | 9.3
COc1ccc(CNC(=O)C(C)N(C)Cc2cccc(F)c2)cc1 (stereo not shown) | -17.9
CCCc1ccc(OCc2ccc(C(=O)O)o2)c(OC)c1 | 8.51
Cc1ccc(C(=O)NNC(=S)NCC2CCCO2)cc1[N+](=O)[O-] (stereo not shown) | -40.6
COc1ccc2cc(C(=O)C3CCCN(C(=O)c4cccnc4)C3)ccc2c1 (stereo not shown) | -25.1
COc1ccc(NC(=O)CCc2nnc3ccc(NCc4ccc5c(c4)OCO5)nn23)cc1 | 12.9
O=S(=O)(Nc1ccccc1)c1ccc(NS(=O)(=O)c2cccs2)cc1 | 0.645
COc1cccc(-n2c(=O)c3ccccc3n(CC(=O)NCC3CCCO3)c2=O)c1 (stereo not shown) | 21.9
CC(C)(C)OC(=O)NCCC(=O)N/N=C/c1ccc2nccnc2c1 | 13.4
Cc1nn(C)c(Cl)c1CN1CCCC(CO)(Cc2cccc(Cl)c2)C1 (stereo not shown) | -59.8
O=C(N/N=C/C=C/c1ccccc1)c1cnccn1 | 6.57
COc1ccc2c(Cl)c(-c3nnc(SCC(=O)c4ccccc4)n3C)sc2c1 | 8.28
Cc1ccc(NC(=O)CS(=O)CC(=O)N(C2CCCC2)C(C)C(=O)NC2CCCCC2)cc1 (stereo not shown) | -22.5
Cn1c(=O)c2c(-c3ccccc3)n(CCCN3CCOCC3)cc2n(C)c1=O | 16.1
CCOc1cccc(CNCCO)c1OCc1ccc(Cl)cc1.Cl | -53.2
O=C(COC(=O)CC1c2ccccc2CCN1S(=O)(=O)c1ccc(F)cc1)Nc1ccccc1 (stereo not shown) | 2.63
CSCCC1NC(=O)N(CC(=O)Nc2ccc(N3CCCCC3)cc2)C1=O (stereo not shown) | -9.48
CCn1cc(S(=O)(=O)c2ccc(C)cc2)c(=O)c2cc(OC)ccc21 | -8.72
Cc1ccccc1S(=O)(=O)Cc1ccc(C(=O)N2CCN(c3ccc(F)cc3)CC2)o1 | -64.3
COC(/C=C/Nc1ccc(Cl)cc1)=C(C#N)C#N | -37.9
Cc1nnc(N2C(=O)C(O)=C(C(=O)c3ccco3)C2c2ccc(C(C)C)cc2)s1 (stereo not shown) | 4.25
CN(C)S(=O)(=O)c1ccc(C(=O)OCC(=O)NC(=O)NCc2ccccc2)cc1 | -1.48
COc1cc(CCC(=O)Nc2nnc(C)s2)cc(OC)c1OC | 22
